# Experimental data published in publication PMC12136788.
# This is one part of the list.
# B1: chr7:44244176:44244177:+_ENSG00000106636_ENST00000223369|hu_mus|hu_hu_hu_mus_False|88_88 (ssRNA)
# RNA: GGGAGUUCUACAGUCCGACGAUCACUGUCGCUCCGGACGUAGACAUGGCACAGAUACUCUUGUUCUUUGACAGAAGCUCUGCUGCCUUUCCCCGAGCGUUCCACAAUCAGUUGACUUGUAAAGGUCAUGAAUUCCUGCACACUCAACAGAGGAUUGAGCAUCA
# B2: chr3:55808730:55808731:-_ENSMUSG00000027799_ENSMUST00000029374|mus_mus|motif|central (ssRNA)
# RNA: GGGAGUUCUACAGUCCGACGAUCUGACGUCGUAUGAAUUCUGAAGUCUUUCUCUUCCAUUAUGCUUGAUGUGCACGUUAACUCGGCACUCGCAGUCAUGUGAGCAAGCAACCCAAGAUCAUCACUGACACCAAGAUGUACUUGCAACAGAGGAUUGAGCAUCA
# B3: chr2:15768762:15768763:+_ENSG00000079785_ENST00000233084|hu_hu|FALSE|FALSE (ssRNA)
# RNA: GGGAGUUCUACAGUCCGACGAUCGGGCAGAGUGACAUUUAUAACAUAAGGAACACCGUGGAUAUCAAUUCCUCUAGCAGCUACAUCUGUGCAAAUCAAGAAUCUUACAUCUCCUUUCUUAAAUCUUUCCAAGUUUUGCUUUCUCAACAGAGGAUUGAGCAUCA
# B4: chr1:150192741:150192742:-_ENSG00000143401_ENST00000314136|hu_mus|FALSE|FALSE (ssRNA)
# RNA: GGGAGUUCUACAGUCCGACGAUCAAUUAUGGGCUAAAAAUGUCUAAUACAUUAAGCAUGAAUUAUAAAAAUCCAGAAUCUAAAUACAGUGCUAGAGAAUUUCACUAUGGGAAGAUGAAUGAGAAUUCUUUUCUAAGAACAUUACAACAGAGGAUUGAGCAUCA
# B5: 88941431_88943671_2168_CDS_ENSMUSG00000053333_ENSMUST00000065694|mouse|control|control (ssRNA)
# RNA: GGGAGUUCUACAGUCCGACGAUCAGCAUAAUGCCGGAACUGCUCCUGGUCCUGCAGCAUCCCAGAGCAGAAGUACAGUGCCAUCUGCAUGGGCCGGGAGUACAUGUUGGUGAGCACCUCCUUCCGGGCCAGAGAGUACUUGUCCAACAGAGGAUUGAGCAUCA
# B6: 179789816_179790473_675_CDS_ENSMUSG00000039086_ENSMUST00000041126|mouse|control|control (ssRNA)
# RNA: GGGAGUUCUACAGUCCGACGAUCUGACAAGCUCAUGGAGGUUGUGGGCAGUGUGCUCUGAGCCGUCUGCUGCAUGGACACGUGGUUUGGACCGUUACCGAUCUGGCCCUGCAUGAGGGAGGCGGGGGGCAGGCCUGUGCUGACCAACAGAGGAUUGAGCAUCA
# B7: 123687886_123694686_1377_CDS_ENSG00000051825_ENST00000606320|human|control|control (ssRNA)
# RNA: GGGAGUUCUACAGUCCGACGAUCCAGUGACGGUAGCUUCAUCUCAUUACUAGUAUUAGACUGGUUUGGUGACACAUCUGUGGAAGACAAUGAUAUGAACGUCUUCUCUAAAGUUUCAGGCAAAGAGUGGUGCAUAUCCUUUUCCAACAGAGGAUUGAGCAUCA
# B8: chr6:124997908:124997909:+_ENSMUSG00000030330_ENSMUST00000032480|mus_mus|FALSE|FALSE (ssRNA)
# RNA: GGGAGUUCUACAGUCCGACGAUCGGAACAAUCCGGGUUGUCACAGCCAAUCAUCUCUCCAUAGGAGACCUGGUGACAAAGGCAAUAUGUGGGUUCGUUGGGAUCCACAGGCAUAUCCAACACAUCAGAGGGGUGGACACUGCCCAACAGAGGAUUGAGCAUCA
# B9: chr19:8913615:8913616:-_ENSMUSG00000071658_ENSMUST00000096259|mus_hu|mus_mus_mus_hu_False|28_68 (ssRNA)
# RNA: GGGAGUUCUACAGUCCGACGAUCAGGGUACCAAAACCUUCUGCCUGAAAUGGGUGCCCCACCCAGUCAGGACUUGGAGCUGAAAGUAUCUGAUGCAGAAGCAGUGAAUGCAGAGAAGGAGGCCCCUGGGGAGGGCCAGGCCAGCAACAGAGGAUUGAGCAUCA
# B10: chr1:244855233:244855234:+_ENSG00000121644_ENST00000302550|hu_mus|hu_hu_hu_mus_True|58_88 (ssRNA)
# RNA: GGGAGUUCUACAGUCCGACGAUCCAUCAGAUGGUAGGCGUUGCCCUUGUAUUCUUUCCCCAGUUCUUCUACAAUUUUUUCUAUAUCAUCUUCUAGAAAGUCCGUACUUCCUAGAACAACAGCUUCUUUAAAUUUAAAUGUUUCCAACAGAGGAUUGAGCAUCA
# B11: 4747903_4748125_6276_CDS_ENSMUSG00000067889_ENSMUST00000008991|mouse|control|control (ssRNA)
# RNA: GGGAGUUCUACAGUCCGACGAUCUCUGGCCUCUAUCUCUGCUUUGAUUCCUUGUUGGUUUUUGAUGACUAAAUCUGCAGAGGACACAUCCCGGGGCCGCUCCUGGGCAUCCAUCUGCAGGUUAAUCCCAUCCAUCCACAGCAUCAACAGAGGAUUGAGCAUCA
# B12: 107778335_107779655_711_CDS_ENSG00000196776_ENST00000355354|human|control|control (ssRNA)
# RNA: GGGAGUUCUACAGUCCGACGAUCCCCUGUAGAAGUCACAAUUAAACCAAGGCCAGUAGCAUUCUUUAAUGAAUAUUCACCUGGGACGAAAAGAAUGGCUCCAACAAUGACAAUGACAGUGAUCACUAGUCCAGCAACAAGUAACAACAGAGGAUUGAGCAUCA
# B13: chr4:140556289:140556290:+_ENSMUSG00000036622_ENSMUST00000037055|mus_mus|mus_mus_mus_hu_False|1_28 (ssRNA)
# RNA: GGGAGUUCUACAGUCCGACGAUCGAUGGAGCUCACCAGGCCCCCUUUUGCCGUGCAGAACCCUGUGCGGGUCACCACUGCCAGGACGUGCGGUCCCACAUAGGCCCGGGCCUGCAGGAUGAGGGUCCCGCAGAAGAGGGUGUGCAACAGAGGAUUGAGCAUCA
# B14: 4342972_4343092_2119_CDS_ENSMUSG00000054611_ENSMUST00000075856|mouse|control|control (ssRNA)
# RNA: GGGAGUUCUACAGUCCGACGAUCCACUUGCCUAUCCUUUUUAGGGCUACAUUGGGGAUCCCAAACUUGGCCAUUGUGGGAUCCCCGGGUAGAGUCUGAGGAUGAGUCUCCAGACAAAGUUUUCUUCAGACUUGGAAGACUUCGCAACAGAGGAUUGAGCAUCA
# B15: chrX:41029285:41029286:+_ENSG00000124486_ENST00000378308|hu_mus|FALSE|FALSE (ssRNA)
# RNA: GGGAGUUCUACAGUCCGACGAUCUGUAUGAGACCAAACCUCCAAGUCAUCUACUUGCCUGCCCUGGUUUGGAAAUCGAACUAUAAAAGAGAGGUGUUUACCACGGAAAGCUCUUGACAUAGGCAAAAUUGUUCUUUCUUCAUGCAACAGAGGAUUGAGCAUCA
# B16: chr2:198351390:198351391:-_ENSG00000144381_ENST00000345042|hu_hu|hu_hu_hu_mus_False|18_38 (ssRNA)
# RNA: GGGAGUUCUACAGUCCGACGAUCUCAUUCCCACCCUCCACAGAAAGGCUGCUUCUGAACUCUCAUGUGGUGACACAGCGCUACAGUCCUGAUGCUCACAGAAUAGUAGAGAUGCCUCCUCAGUGAUAGUUGAAAGCAGGACACCAACAGAGGAUUGAGCAUCA
# B17: chr6:31620082:31620083:-_ENSG00000204463_ENST00000375976|hu_hu|motif|central (ssRNA)
# RNA: GGGAGUUCUACAGUCCGACGAUCCUAGCUGACUGCCCGCGUCUACUGCCUUCCCACGGUGUUCCAGCAGAACGGCACAACGGACCCACAGCCAAACACACACACACACACACACACACACACACACACACACACCCACCACCCCAACAGAGGAUUGAGCAUCA
# B18: chr4:120981101:120981102:-_ENSG00000164109_ENST00000333047|hu_hu|FALSE|FALSE (ssRNA)
# RNA: GGGAGUUCUACAGUCCGACGAUCGGUUCCUUUUGAACAAUGUGCAAUAAAUUCAUGAUGUUAACUCCAUGGUAAGUCAAAUAGGUACCAAAAAAAUAAAAGGAACAAUUACACACAGUUCAGUAAGUAUCAUUUUGGUUUUCUCAACAGAGGAUUGAGCAUCA
# B19: 114940332_114940452_3345_CDS_ENSG00000197323_ENST00000358465|human|control|control (ssRNA)
# RNA: GGGAGUUCUACAGUCCGACGAUCUUCAUCAGAGUCCUCAGUUACCUCACCAUCAUCCUCUUCCUGCUCAAACUCUGGCAAAGGUGCGAAGGUCCUGUCUGAGUAGAUCUCUGUGAGUUUAUCUUCAAAGUACAAUGCAACUGCCAACAGAGGAUUGAGCAUCA
# B20: chr5:33461064:33461065:+_ENSG00000113407_ENST00000502553|hu_hu|FALSE|FALSE (ssRNA)
# RNA: GGGAGUUCUACAGUCCGACGAUCGGUGAGUCCUGUGAGUGCUCCAGACAGCUCGUUCCUAUGAAGUACCCCAAAAUCAGCUAGCCGCAGAGGCAGUUCUCGCCAGGACCUUGGCCGAUGAUCAAACAUAAGGCAGUGUCCUGGCAACAGAGGAUUGAGCAUCA
# B21: chr7:51716546:51716547:+_ENSMUSG00000047085_ENSMUST00000058667|mus_hu|FALSE|FALSE (ssRNA)
# RNA: GGGAGUUCUACAGUCCGACGAUCGGGGAUGCUCUCGAUGGGGUUGUUCCGCAGCCAGAGCUCCCGCAGCUUGGACAGGUACUCGAAGGCCUGCGUGGGCACCGUGGUCAGCCGGUUGUCAAAAAGCUCCAGCGUGUUGAGGCUCAACAGAGGAUUGAGCAUCA
# B22: chr6:38652254:38652255:-_ENSG00000124767_ENST00000373365|hu_hu|hu_hu_hu_mus_False|1_28 (ssRNA)
# RNA: GGGAGUUCUACAGUCCGACGAUCCGAGAACUUCAUAGCAGGGAAGUCAAGCUUCUGCAGGAGGGUCAGUCCAAGAACCCUCGUAUAAAAAUCCAGGGACUUCUUAGGAUCCUUCACUCUUAGCAUCGUUUGCUGCAAUAGAAACAACAGAGGAUUGAGCAUCA
# Target: T1, UNK ZnF1-3 (human, UniProt Q9C0B0 31-174)
# T1 sequence: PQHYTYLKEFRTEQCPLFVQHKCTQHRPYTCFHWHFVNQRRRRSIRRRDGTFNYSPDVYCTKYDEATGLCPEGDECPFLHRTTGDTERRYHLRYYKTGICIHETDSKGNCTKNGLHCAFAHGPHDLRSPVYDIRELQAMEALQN
# Assay: nsRBNS (natural sequence RNA bind-n-seq); RBNS binding buffer (assumed for nsRBNS): 25 mM Tris pH 7.5, 150 mM KCl, 3 mM MgCl2, 0.01% Triton X-100, 500 ug/ml BSA, 20 U/ml SUPERase-In, 4 C; UNK is unkempt and MSI1 is Musashi-1; names of the RNAs are library labels; protein concentration not given here; high values mean tight binding
row,Binder,binding signal [enrichment R]
1,B1,0.518
2,B2,0.562
3,B3,1.46
4,B4,0.916
5,B5,0.926
6,B6,0.969
7,B7,1.14
8,B8,1.19
9,B9,1.9
10,B10,1.43
11,B11,0.595
12,B12,1.69
13,B13,0.409
14,B14,0.905
15,B15,1.04
16,B16,1.3
17,B17,1.42
18,B18,0.757
19,B19,0.863
20,B20,0.911
21,B21,0.498
22,B22,0.597
